153 variants from a collection of fitness landscapes (doi:10.1126/science.1257360) can be followed below.

The list shows a part of the results.

Sequences and labels used below:
B1: PhoQ; a variant is named by its letters at X, in order, P23837 (parent)
chain: MKKLLRLFFPLSLRVRFLLATAAVVLVLSLAYGMVALIGYSVSFDKTTFRLLRGESNLFYTLAKWENNKLHVELPENIDKQSPTMTLIYDENGQLLWAQRDVPWLMKMIQPDWLKSNGFHEIEADVNDTSLLLSGDHSIQQQLQEVREDDDDAEMTHSVAVNVYPATSRMPKLTIVVVDTIPVELKSSYMVWSWFIYVLSANLLLVIPLLWVAAWWSLRPIEALAKEVRELEEHNRELLNPATTRELTSLVRNLNRLLKSERERYDKYRTTLTDLTHSLKTPLXXLQXXLRSLRSEKMSVSDAEPVMLEQISRISQQIGYYLHRASMRGGTLLSRELHPVAPLLDNLTSALNKVYQRKGVNISLDISPEISFVGEQNDFVEVMGNVLDNACKYCLEFVEISARQTDEHLYIVVEDDGPGIPLSKREVIFDRGQRVDTLRPGQGVGLAVAREITEQYEGKIVAGESMLGGARMEVIFGRQHSAPKDE

Variants of B1 are the subject of the test. In words: enrichment ratio after two sorts for PhoP signalling (ratio (wild type AVST 3.29)); higher = more functional. The note with it: with PhoP (E. coli).
Regarding QAMP, the enrichment ratio is at most 0.25.
As for KDRI, the enrichment ratio is at most 0.25.
RVSP: the enrichment ratio is at most 0.25.
As for IIFQ, the figure is at most 0.25; as for NWQI, at most 0.25; as for PWHS, at most 0.25.
Then KIFL, with at most 0.25; and TIFQ, with at most 0.25; and MTPN, with at most 0.25.
As for PDTS, the figure is at most 0.25.
In the case of YPAP, the enrichment ratio is at most 0.25.
As for LLVL, the figure is at most 0.25; as for MCFF, 6.17; as for QKYS, at most 0.25.
LCTV: the enrichment ratio is at most 0.25.
Turning to LPCP, the enrichment ratio was at most 0.25.
As for DPPM, the figure is at most 0.25; as for RYLG, at most 0.25.
On to KQWC, for which the enrichment ratio was at most 0.25.
Then ILSK, with at most 0.25; and LWPG, with at most 0.25.
For RMFR, the enrichment ratio is at most 0.25.
With PEFT, the enrichment ratio was at most 0.25.
For RHTA, the enrichment ratio is at most 0.25.
As for YQSH, the figure is at most 0.25; as for RSYM, at most 0.25.
Turning to FPRH, the enrichment ratio was at most 0.25.
Turning to LDRC, the enrichment ratio is at most 0.25.
As for AIGV, the figure is at most 0.25; as for EDVE, at most 0.25; as for QECL, at most 0.25.
Turning to ETCN, the enrichment ratio is at most 0.25.
Turning to IHFY, the enrichment ratio is at most 0.25.
As for DTGR, the enrichment ratio is at most 0.25.
Then IQSC, with at most 0.25; and QDSE, with at most 0.25; and DAFN, with at most 0.25.
Consider ESMK, for which the enrichment ratio is at most 0.25.
As for NGMM, the figure is at most 0.25; as for HPKR, 3.21; as for NSCT, at most 0.25.
Then FTIH, with at most 0.25.
As for HKLE, the figure is at most 0.25; as for RPTC, at most 0.25.
On to VCLQ, for which the enrichment ratio is 6.54.
Take MVWD: the enrichment ratio is at most 0.25.
For the variant QYAF, the enrichment ratio was at most 0.25.
With RMDD, the enrichment ratio was at most 0.25.
Turning to HVPT, the enrichment ratio was at most 0.25.
Then CTLP, with at most 0.25.
As for PWEY, the figure is at most 0.25; as for VFGF, at most 0.25; as for NECV, at most 0.25.
Then TVMT, with 12.2; and LPMM, with at most 0.25.
For IGCQ, the enrichment ratio is at most 0.25.
As for SFMH, the figure is at most 0.25; as for NNNH, at most 0.25.
Then LHFE, with at most 0.25.
For KMGI, the enrichment ratio is at most 0.25.
As to IAMT, the enrichment ratio is at most 0.25.
Turning to RYKM, the enrichment ratio was at most 0.25.
As for QECS, the figure is 10.1.
Then IEVR, with at most 0.25.
As for SRCD, the figure is 4.09.
Consider TCHQ, for which the enrichment ratio is 23.4.
For the variant AYFT, the enrichment ratio was at most 0.25.
Then RVCV, with at most 0.25; and ATPF, with at most 0.25.
As to HTQM, the enrichment ratio is at most 0.25.
Then YKPS, with at most 0.25.
As for NTHH, the figure is at most 0.25; as for HQNP, at most 0.25; as for RWFI, at most 0.25.
As to YMKG, the enrichment ratio was at most 0.25.
As for ALEI, the enrichment ratio is at most 0.25.
As for KPDP, the enrichment ratio is at most 0.25.
Then RGNW, with at most 0.25; and ERNR, with at most 0.25.
As to PFAF, the enrichment ratio was at most 0.25.
AGNQ: the enrichment ratio is at most 0.25.
Turning to SRHA, the enrichment ratio was at most 0.25.
WHEP: the enrichment ratio was at most 0.25.
Then VWMS, with at most 0.25; and RKNP, with at most 0.25; and DVKL, with at most 0.25.
Then AKEN, with at most 0.25.
Take RKQR: the enrichment ratio was at most 0.25.
On to QLDH, for which the enrichment ratio was at most 0.25.
As for PECC, the figure is at most 0.25; as for LMYV, at most 0.25; as for LYED, at most 0.25.
As for FFMA, the enrichment ratio is at most 0.25.
As to PNDF, the enrichment ratio is at most 0.25.
For AVYR, the enrichment ratio was at most 0.25.
As to MPPC, the enrichment ratio was at most 0.25.
As for YKWW, the figure is at most 0.25; as for YSGE, at most 0.25.
In the case of CSFT, the enrichment ratio is at most 0.25.
As to QGYS, the enrichment ratio came out at 8.3.
Then RLMD, with at most 0.25; and GIVI, with 6.54; and LMTS, with 0.708.
Then MCRR, with at most 0.25; and FYLK, with at most 0.25; and NQRW, with at most 0.25.
For the variant EATG, the enrichment ratio was at most 0.25.
As for THAW, the figure is at most 0.25; as for VIAR, at most 0.25.
GQLD: the enrichment ratio was at most 0.25.
As for TDGR, the figure is at most 0.25; as for ELLK, at most 0.25.
For LTQV, the enrichment ratio is at most 0.25.
In the case of SPFK, the enrichment ratio is at most 0.25.
As for WFDV, the figure is at most 0.25; as for YHEW, at most 0.25.
As for RCWF, the figure is at most 0.25.
As for DNEG, the figure is at most 0.25.
As for WDKS, the enrichment ratio is at most 0.25.
As for YSGC, the figure is at most 0.25; as for NYSD, at most 0.25.
Then EPIC, with at most 0.25.
As for EHER, the figure is at most 0.25; as for YQEY, at most 0.25; as for QANG, at most 0.25.
As to TKLH, the enrichment ratio came to 11.9.
With IPFQ, the enrichment ratio is at most 0.25.
Then VWFA, with at most 0.25; and LPRL, with at most 0.25; and MIHA, with at most 0.25.
As for FSIY, the enrichment ratio was at most 0.25.
As for EFNC, the figure is at most 0.25; as for SSVN, 6.68.
In the case of PHGQ, the enrichment ratio is at most 0.25.
Then WFCP, with at most 0.25; and WMTN, with at most 0.25; and DCID, with at most 0.25.
As for GGVG, the figure is at most 0.25.
Then KEVS, with at most 0.25; and FAPE, with at most 0.25.
Take MSMF: the enrichment ratio amounted to 3.78.
As to RSLL, the enrichment ratio was at most 0.25.
As to MMYG, the enrichment ratio is at most 0.25.
Then FWDV, with at most 0.25.
Then THWG, with 0.774; and LGFP, with at most 0.25.
LPIE: the enrichment ratio was at most 0.25.
Then PSDW, with at most 0.25; and TEMD, with 1.58.
In the case of LDCP, the enrichment ratio was at most 0.25.
As for VEMY, the figure is at most 0.25; as for LLSL, at most 0.25; as for PIPH, at most 0.25.
